Our source for the cell viability values is the supplement of paper PMC8512760.

Test systems include HCC-1143; HCC-1187; MDA-468; SUM-149.
Common to all, as to test: cell viability relative to vehicle (% of vehicle); basal-like triple-negative breast cancer lines; higher = less cytotoxic
Conditions in all cases: 10 µM; 72 h

Molecules are shown by their SMILES. The list shows a part of the results. Single values are uncertain, as repeats are few or missing.
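Note: stably firefly luciferase-GFP labeled cells in 96-well plates, viability read as luciferase photon flux after d-luciferin addition, treated wells normalized to vehicle wells, single-dose high-throughput screen.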

Turning to `Nc1nc(=O)c2c(CCc3ccc(C(=O)NC(CCC(=O)O)C(=O)O)cc3)c[nH]c2[nH]1.O.[Na+]` (stereo not given) [Pemetrexed disodium hemipenta hydrate], the cell viability in the assay with HCC-1143 was 80.1; with HCC-1187 it was 88.4; with MDA-468, 71.6; in the assay on SUM-149 it was 144.
Regarding `Cc1cnc(NC(=O)C2=C(O)c3ccccc3S(=O)(=O)N2C)s1` [Meloxicam (Mobic)], the cell viability in the assay with HCC-1143 turned out to be 110; in the assay with HCC-1187 it was 92.8; in the assay on MDA-468, 112; in the assay with SUM-149, 116.
Taken in the same sequence, the figures for `CCCCC(=O)N(Cc1ccc(-c2ccccc2-c2nn[nH]n2)cc1)C(C(=O)O)C(C)C` (stereo not given) [Valsartan] were 123, 113, 85.8 and 125.
With `COC(=O)C1C2CC3c4[nH]c5cc(OC)ccc5c4CCN3CC2CC(OC(=O)c2cc(OC)c(OC)c(OC)c2)C1OC` (stereo not given) [Reserpine], the cell viability is 119 in the assay with HCC-1143, 96 with HCC-1187, 131 in the assay with MDA-468 and 97.7 with SUM-149.
On to `CC(C)n1c(C=CC(O)CC(O)CC(=O)O)c(-c2ccc(F)cc2)c2ccccc21` (stereo not given) [Fluvastatin], for which the cell viability was found to be 78.3 in the assay with HCC-1143, 55.3 in the assay on HCC-1187, 37.6 in the assay with MDA-468 and 87.7 in the assay on SUM-149.
With `CCOC(=O)C1=C(COCCN)NC(C)=C(C(=O)OC)C1c1ccccc1Cl` (stereo not given) [Amlodipine], the cell viability is 82 in the assay with HCC-1143, 66 in the assay with HCC-1187, 87.1 with MDA-468 and 94.9 with SUM-149.
On the same counts, the results for `CCN(CC)CCCC(C)Nc1ccnc2cc(Cl)ccc12.O=P(O)(O)O.O=P(O)(O)O` (stereo not given) [Chloroquine diphosphate] are 70.6, 83, 102 and 92.2.
`CC12CCC3c4ccc(O)cc4CCC3C1CCC2=O` (stereo not given) [Estrone]: the cell viability in the assay with HCC-1143 was found to be 79.6; with HCC-1187, 92.7; in the assay on MDA-468, 137; with SUM-149, 111.
As to `c1cc(CN2CCCNCCNCCCNCC2)ccc1CN1CCCNCCNCCCNCC1` [Plerixafor (AMD3100)], the cell viability worked out at 83.3 with HCC-1143, 88.7 in the assay with HCC-1187, 82 with MDA-468 and 89.9 in the assay with SUM-149.
For `Cc1cccc(Nc2ccncc2S(=O)(=O)NC(=O)NC(C)C)c1` [Torsemide], the cell viability in the assay on HCC-1143 is 147; in the assay with HCC-1187, 112; in the assay with MDA-468, 85; with SUM-149, 122.
With `CCCCCC(O)C=CC1C(O)CC(=O)C1CCCCCCC(=O)O` (stereo not given) [Alprostadil], the cell viability with HCC-1143 was determined as 102; with HCC-1187 it was 90.2; in the assay with MDA-468 it was 120; in the assay on SUM-149 it was 101.
For the molecule `COc1ccccc1OCC(O)COC(N)=O` (stereo not given) [Methyocarbamol], the cell viability turned out to be 88.1 in the assay with HCC-1143, 124 with HCC-1187, 110 with MDA-468 and 94.3 with SUM-149.
Turning to `O=c1ccc2ccc(OCCCCN3CCN(c4cccc5sccc45)CC3)cc2[nH]1` [Brexpiprazole], the cell viability with HCC-1143 was 113; with HCC-1187, 96.8; with MDA-468, 103; with SUM-149, 116.
With `Cc1cnc(Nc2ccc(OCCN3CCCC3)cc2)nc1Nc1cccc(S(=O)(=O)NC(C)(C)C)c1`, the cell viability in the assay on HCC-1143 worked out at 68.3; with HCC-1187 it was 40.1; with MDA-468, 62.2; in the assay on SUM-149, 57.5.
Turning to `CCCSc1nc(NC2CC2c2ccc(F)c(F)c2)c2nnn(C3CC(OCCO)C(O)C3O)c2n1` (stereo not given) [Ticagrelor], the cell viability stood at 65.7 in the assay on HCC-1143, 90.3 with HCC-1187, 106 with MDA-468 and 101 in the assay with SUM-149.
For `CO[C@H]1/C=C/O[C@@]2(C)Oc3c(C)c(O)c4c(c3C2=O)C2=NC3(CCN(CC(C)C)CC3)NC2=C(NC(=O)/C(C)=C\C=C\[C@H](C)[C@H](O)[C@@H](C)[C@@H](O)[C@@H](C)[C@H](OC(C)=O)[C@@H]1C)C4=O` [Rifabutin], the cell viability turned out to be 93.4 in the assay with HCC-1143, 81.4 in the assay on HCC-1187, 104 in the assay on MDA-468 and 126 with SUM-149.
Take `CCCCCOC(=O)Nc1nc(=O)n(C2OC(C)C(O)C2O)cc1F` (stereo not given) [Capecitabine]: the cell viability with HCC-1143 was determined as 109; in the assay with HCC-1187, 107; with MDA-468, 118; with SUM-149, 105.
As to `CC1COc2c(N3CCN(C)CC3)c(F)cc3c(=O)c(C(=O)O)cn1c23` (stereo not given) [Ofloxacin], the cell viability in the assay on HCC-1143 was 68; in the assay with HCC-1187 it was 79.9; in the assay with MDA-468, 101; in the assay with SUM-149 it was 96.3.
For the molecule `C[C@@H]1C\C=C/C=C\C=C/C=C\[C@H](O[C@@H]2O[C@H](C)[C@@H](O)[C@H](N)[C@@H]2O)C[C@@H]2O[C@](O)(C[C@@H](O)C[C@H]3O[C@@H]3/C=C\C(=O)O1)C[C@H](O)[C@H]2C(=O)O` [Natamycin], the cell viability in the assay on HCC-1143 was 64.7; with HCC-1187 it was 63.4; in the assay with MDA-468 it was 87.4; in the assay with SUM-149, 136.
Taken in the same sequence, the figures for `CC(C)(C)c1cc(C(C)(C)C)c(NC(=O)c2c[nH]c3ccccc3c2=O)cc1O` [Ivacaftor (VX-770)] were 110, 128, 61.4 and 159.
